Source: the supplement of paper PMC8728848
The other results are listed elsewhere or left out.

Legend:
Assay in all cases: glycan array binding signal (z-score within array); higher = stronger binding
Conditions in all cases: glycan notation: IUPAC condensed, linker removed
[1] = target: Fuc(a1-2)Gal(b1-4)GlcNAc6S
Outline: (§1)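 Negative Z-scores can be read as non-binding. The Z-score is calculated within each array and then averaged across arrays of one protein sequence at different concentrations or buffers and across linkers. Arrays, 3228 in all, were curated from the Consortium for Functional Glycomics database and kept only where the protein sequence was available.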

[2] = target: Fuc(a1-2)Gal(b1-4)[Fuc(a1-3)]GlcNAc
Outline: as §1

[3] = target: Fuc(a1-2)Gal(b1-4)[Fuc(a1-3)]GlcNAc(b1-2)Man(a1-3)[Fuc(a1-2)Gal(b1-4)[Fuc(a1-3)]GlcNAc(b1-2)Man(a1-6)]Man(b1-4)GlcNAc(b1-4)GlcNAc
Outline: as §1

[4] = target: Fuc(a1-2)Gal(b1-4)[Fuc(a1-3)]GlcNAc(b1-2)[Fuc(a1-2)Gal(b1-4)[Fuc(a1-3)]GlcNAc(b1-4)]Man(a1-3)[Fuc(a1-2)Gal(b1-4)[Fuc(a1-3)]GlcNAc(b1-2)Man(a1-6)]Man(b1-4)GlcNAc(b1-4)GlcNAc
Outline: as §1

[5] = target: Fuc(a1-2)Gal(b1-4)[Fuc(a1-3)]GlcNAc(b1-3)Gal(b1-4)[Fuc(a1-3)]GlcNAc
Outline: as §1

[6] = target: Fuc(a1-2)Gal(b1-4)[Fuc(a1-3)]GlcNAc(b1-3)Gal(b1-4)[Fuc(a1-3)]GlcNAc(b1-3)Gal(b1-4)[Fuc(a1-3)]GlcNAc
Outline: as §1

[7] = target: Fuc(a1-2)Gal(b1-4)[Fuc(a1-3)]GlcNAc(b1-3)GalNAc
Outline: as §1

[8] = target: Fuc(a1-2)Gal6S(b1-4)Glc
Outline: as §1

[9] = target: Fuc(a1-2)Gal6S(b1-4)Glc6S
Outline: as §1

[10] = target: Fuc(a1-2)Gal6S(b1-4)GlcNAc
Outline: as §1

[11] = target: Fuc(a1-2)GlcNAc
Outline: as §1

[12] = target: Fuc(a1-2)[Gal(a1-3)]Gal
Outline: as §1

[13] = target: Fuc(a1-2)[Gal(a1-3)]Gal(b1-3)GalNAc
Outline: as §1

[14] = target: Fuc(a1-2)[Gal(a1-3)]Gal(b1-3)GlcNAc
Outline: as §1

[15] = target: Fuc(a1-2)[Gal(a1-3)]Gal(b1-3)GlcNAc(b1-2)Man(a1-3)[Fuc(a1-2)[Gal(a1-3)]Gal(b1-3)GlcNAc(b1-2)Man(a1-6)]Man(b1-4)GlcNAc(b1-4)GlcNAc
Outline: as §1

[16] = target: Fuc(a1-2)[Gal(a1-3)]Gal(b1-3)GlcNAc(b1-2)Man(a1-3)[Fuc(a1-2)[Gal(a1-3)]Gal(b1-3)GlcNAc(b1-2)Man(a1-6)]Man(b1-4)GlcNAc(b1-4)[Fuc(a1-6)]GlcNAc
Outline: as §1

[17] = target: Fuc(a1-2)[Gal(a1-3)]Gal(b1-3)GlcNAc(b1-3)GalNAc
Outline: as §1

[18] = target: Fuc(a1-2)[Gal(a1-3)]Gal(b1-4)Glc
Outline: as §1

[19] = target: Fuc(a1-2)[Gal(a1-3)]Gal(b1-4)GlcNAc
Outline: as §1

[20] = target: Fuc(a1-2)[Gal(a1-3)]Gal(b1-4)GlcNAc(b1-2)Man(a1-3)[Fuc(a1-2)[Gal(a1-3)]Gal(b1-4)GlcNAc(b1-2)Man(a1-6)]Man(b1-4)GlcNAc(b1-4)GlcNAc
Outline: as §1

[21] = target: Fuc(a1-2)[Gal(a1-3)]Gal(b1-4)GlcNAc(b1-2)Man(a1-3)[Fuc(a1-2)[Gal(a1-3)]Gal(b1-4)GlcNAc(b1-2)Man(a1-6)]Man(b1-4)GlcNAc(b1-4)[Fuc(a1-6)]GlcNAc
Outline: as §1

[22] = target: Fuc(a1-2)[Gal(a1-3)]Gal(b1-4)GlcNAc(b1-3)GalNAc
Outline: as §1

[23] = target: Fuc(a1-2)[Gal(a1-3)]Gal(b1-4)[Fuc(a1-3)]Glc
Outline: as §1

[24] = target: Fuc(a1-2)[Gal(a1-3)]Gal(b1-4)[Fuc(a1-3)]GlcNAc
Outline: as §1

[25] = target: Fuc(a1-2)[Gal(a1-3)]Gal(b1-4)[Fuc(a1-3)]GlcNAc(b1-3)GalNAc
Outline: as §1

[26] = target: Fuc(a1-2)[Gal(a1-4)]Gal(b1-4)GlcNAc
Outline: as §1

[27] = target: Fuc(a1-2)[GalNAc(a1-3)]Gal
Outline: as §1

[28] = target: Fuc(a1-2)[GalNAc(a1-3)]Gal(b1-3)GalNAc(a1-3)[Fuc(a1-2)]Gal(b1-4)GlcNAc
Outline: as §1

[29] = target: Fuc(a1-2)[GalNAc(a1-3)]Gal(b1-3)GlcNAc
Outline: as §1

[30] = target: Fuc(a1-2)[GalNAc(a1-3)]Gal(b1-3)GlcNAc(b1-2)Man(a1-3)[Fuc(a1-2)[GalNAc(a1-3)]Gal(b1-3)GlcNAc(b1-2)Man(a1-6)]Man(b1-4)GlcNAc(b1-4)GlcNAc
Outline: as §1

[31] = target: Fuc(a1-2)[GalNAc(a1-3)]Gal(b1-3)GlcNAc(b1-2)Man(a1-3)[Fuc(a1-2)[GalNAc(a1-3)]Gal(b1-3)GlcNAc(b1-2)Man(a1-6)]Man(b1-4)GlcNAc(b1-4)[Fuc(a1-6)]GlcNAc
Outline: as §1

[32] = target: Fuc(a1-2)[GalNAc(a1-3)]Gal(b1-3)GlcNAc(b1-3)GalNAc
Outline: as §1

[33] = target: Fuc(a1-2)[GalNAc(a1-3)]Gal(b1-4)Glc
Outline: as §1

[34] = target: Fuc(a1-2)[GalNAc(a1-3)]Gal(b1-4)GlcNAc
Outline: as §1

[35] = target: Fuc(a1-2)[GalNAc(a1-3)]Gal(b1-4)GlcNAc(b1-2)Man(a1-3)[Fuc(a1-2)[GalNAc(a1-3)]Gal(b1-4)GlcNAc(b1-2)Man(a1-6)]Man(b1-4)GlcNAc(b1-4)GlcNAc
Outline: as §1

[36] = target: Fuc(a1-2)[GalNAc(a1-3)]Gal(b1-4)GlcNAc(b1-2)Man(a1-3)[Fuc(a1-2)[GalNAc(a1-3)]Gal(b1-4)GlcNAc(b1-2)Man(a1-6)]Man(b1-4)GlcNAc(b1-4)[Fuc(a1-6)]GlcNAc
Outline: as §1

[37] = target: Fuc(a1-2)[GalNAc(a1-3)]Gal(b1-4)GlcNAc(b1-2)Man(a1-3)[GalNAc(a1-3)[Fuc(a1-2)]Gal(b1-4)GlcNAc(b1-2)Man(a1-6)]Man(b1-4)GlcNAc(b1-4)GlcNAc
Outline: as §1

[38] = target: Fuc(a1-2)[GalNAc(a1-3)]Gal(b1-4)GlcNAc(b1-3)Gal(b1-4)GlcNAc
Outline: as §1

[39] = target: Fuc(a1-2)[GalNAc(a1-3)]Gal(b1-4)GlcNAc(b1-3)Gal(b1-4)GlcNAc(b1-3)Gal(b1-4)GlcNAc
Outline: as §1

[40] = target: Fuc(a1-2)[GalNAc(a1-3)]Gal(b1-4)GlcNAc(b1-3)GalNAc
Outline: as §1

[41] = target: Fuc(a1-2)[GalNAc(a1-3)]Gal(b1-4)[Fuc(a1-3)]GlcNAc
Outline: as §1

[42] = target: Fuc(a1-2)[GalNAc(a1-3)]Gal(b1-4)[Fuc(a1-3)]GlcNAc(b1-3)GalNAc
Outline: as §1

[43] = target: Fuc(a1-2)[GalNAc(a1-4)]Gal(b1-4)GlcNAc
Outline: as §1

[44] = target: Fuc(a1-2)[GalNAc(b1-3)]Gal
Outline: as §1

[45] = target: Fuc(a1-3)GlcNAc
Outline: as §1

B1: BC2L-A (Burkholderia cenocepacia), Q1BKJ8_BURCA (protein)
chain: ADSQTSSNRAGEFSIPPNTDFRAIFFANAAEQQHIKLFIGDSQEPAAYHKLTTRDGPREATLNSGNGKIRFEVSVNGKPSATDARLAPINGKKSDGSPFTVNFGIVVSEDGHDSDYNDGIVVLQWPIG
glycan array binding signal (z-score) [1]: 0.072 | glycan array binding signal (z-score) [2]: -0.262 | glycan array binding signal (z-score) [3]: 0.004 | glycan array binding signal (z-score) [4]: -0.194 | glycan array binding signal (z-score) [5]: -0.208 | glycan array binding signal (z-score) [6]: -0.115 | glycan array binding signal (z-score) [7]: -0.21 | glycan array binding signal (z-score) [8]: -0.176 | glycan array binding signal (z-score) [9]: -0.178 | glycan array binding signal (z-score) [10]: -0.173 | glycan array binding signal (z-score) [11]: -0.178 | glycan array binding signal (z-score) [12]: -0.28 | glycan array binding signal (z-score) [13]: -0.219 | glycan array binding signal (z-score) [14]: -0.253 | glycan array binding signal (z-score) [15]: 0.405 | glycan array binding signal (z-score) [16]: 1.1 | glycan array binding signal (z-score) [17]: -0.219 | glycan array binding signal (z-score) [18]: -0.291 | glycan array binding signal (z-score) [19]: -0.265 | glycan array binding signal (z-score) [20]: -0.107 | glycan array binding signal (z-score) [21]: 0.323 | glycan array binding signal (z-score) [22]: -0.217 | glycan array binding signal (z-score) [23]: -0.219 | glycan array binding signal (z-score) [24]: -0.252 | glycan array binding signal (z-score) [25]: -0.218 | glycan array binding signal (z-score) [26]: -0.212 | glycan array binding signal (z-score) [27]: -0.284 | glycan array binding signal (z-score) [28]: -0.22 | glycan array binding signal (z-score) [29]: -0.291 | glycan array binding signal (z-score) [30]: -0.104 | glycan array binding signal (z-score) [31]: 1.18 | glycan array binding signal (z-score) [32]: -0.217 | glycan array binding signal (z-score) [33]: -0.292 | glycan array binding signal (z-score) [34]: -0.288 | glycan array binding signal (z-score) [35]: -0.165 | glycan array binding signal (z-score) [36]: 0.553 | glycan array binding signal (z-score) [37]: -0.195 | glycan array binding signal (z-score) [38]: -0.296 | glycan array binding signal (z-score) [39]: -0.235 | glycan array binding signal (z-score) [40]: -0.218 | glycan array binding signal (z-score) [41]: -0.277 | glycan array binding signal (z-score) [42]: -0.215 | glycan array binding signal (z-score) [43]: -0.235 | glycan array binding signal (z-score) [44]: -0.29 | glycan array binding signal (z-score) [45]: -0.061
